Assay results taken from PubChem BioAssay AID1159614 (National Center for Advancing Translational Sciences (NCATS), 2016).
The campaign covered roughly 45,000 compounds. About 65 (0.1%) were called active. Calls follow the shape of the dose curve; as a rule, active = well fitted activation curve with a large enough effect; inconclusive = small, poorly fitted or top-dose-only effect; inactive = no such curve, though single readings can be large or run the other way. The list shows a part of the results.

Each molecule was assayed against Galactocerebrosidase (Homo sapiens) (UniProt P54803) (assay: A Novel Cell-Based Assay to Identify Small Molecules for B -Galactocerebrosidase). Conditions: 145M-Twi-hGALC-G270D cells (Twitcher mouse brain line with human GALC G270D), HMU-beta-Gal fluorescence, 48 h; series mostly up to 57.5 µM; activation: at the top concentration.
Sequence of UniProt P54803 (P54803 whole entry, looked up): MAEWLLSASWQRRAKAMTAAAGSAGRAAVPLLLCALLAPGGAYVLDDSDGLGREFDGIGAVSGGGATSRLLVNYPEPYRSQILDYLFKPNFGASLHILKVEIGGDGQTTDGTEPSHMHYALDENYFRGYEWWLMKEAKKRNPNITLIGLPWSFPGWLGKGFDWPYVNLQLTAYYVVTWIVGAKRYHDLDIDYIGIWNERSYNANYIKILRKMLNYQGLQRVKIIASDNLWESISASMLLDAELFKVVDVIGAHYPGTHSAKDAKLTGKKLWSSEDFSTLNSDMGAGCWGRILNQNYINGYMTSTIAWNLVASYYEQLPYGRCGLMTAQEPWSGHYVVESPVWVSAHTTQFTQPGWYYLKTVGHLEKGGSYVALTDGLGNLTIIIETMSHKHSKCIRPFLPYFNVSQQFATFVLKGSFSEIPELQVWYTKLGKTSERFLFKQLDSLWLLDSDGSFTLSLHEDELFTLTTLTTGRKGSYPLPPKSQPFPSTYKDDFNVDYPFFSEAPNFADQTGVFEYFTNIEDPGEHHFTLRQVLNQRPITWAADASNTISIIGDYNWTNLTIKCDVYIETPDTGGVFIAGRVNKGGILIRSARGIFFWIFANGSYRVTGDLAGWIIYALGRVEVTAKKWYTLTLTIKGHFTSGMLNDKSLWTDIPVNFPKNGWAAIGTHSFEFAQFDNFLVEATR
How it was run: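 Brain-derived Twitcher mouse 145M-Twi cells stably expressing human GALC-G270D or wild-type GALC, treated live, then residual GALC activity read by fluorescence of HMU-b-Gal substrate (0.1 mM final) in citrate-phosphate buffer pH 5.2 with sodium taurocholate. Signal increase indicates enhancement.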
Also: nearly all actives have a fitted effect of over 65% in size.
For activation in this document: 0% is about no effect.
Potency is read from the fitted curve at half-maximal effect.

Row | Structure (SMILES) | activation | Potency
1 | CN1CCc2c(sc3c2C(=O)NC(c2ccc(OC(=O)c4ccccc4)cc2)N3)C1 (stereo not drawn) | inactive: -21.2% | 
2 | Cc1ccc(NC(=O)C(Cc2ccccc2)n2cccc2)cc1 (stereo not drawn) | inactive: -8.12% | 
3 | COc1ccccc1CNC(=O)C1CCCN(C(=O)c2cnn(-c3ccc(F)cc3)c2-n2cccc2)C1 (stereo not drawn) | inactive: -7% | 
4 | COCCCn1c(=O)c2sccc2n2c(CCCC(=O)Nc3cc(C)cc(C)c3)nnc12 | inactive: -12.7% | 
5 | COc1ccc(C(=O)NCCn2cc(SCC(=O)Nc3ccc(C)cc3)c3ccccc32)cc1 | inactive: -12.2% | 
6 | Cc1ccc(CNC(=O)NCc2noc3ccc(C)cc23)cc1 | inactive: -14.5% | 
7 | Cc1cccc(-c2nc3c4ccccc4nc(N4CCN(c5ccccc5F)CC4)n3n2)c1 | inactive: 2.89% | 
8 | Cn1c(=O)c2c(-c3ccc(Cl)cc3)n(Cc3ccc(Cl)cc3)cc2n(C)c1=O | inactive: -8.5% | 
9 | COc1ccc(C)cc1NC(=O)c1ccc2c(=O)n3c(nc2c1)CCCCC3 | inactive: 4.53% | 
10 | c1ccc(CC2=NCCN2)cc1 | inactive: -10.3% | 
11 | CCCCNC(=O)C1CCN(S(=O)(=O)CCC)CC1 | inactive: -4.71% | 
12 | COc1ccc(OC)c(CNC(=O)c2ccc(C)c(NC(=O)c3nsc4ccccc34)c2)c1 | inactive: -12% | 
13 | COc1ccc(-c2cc(C)no2)cc1S(=O)(=O)Nc1c(C)cc(C)cc1C | inactive: -13.2% | 
14 | CCOc1ccc(OCC)c(NS(=O)(=O)c2cc(-c3cnc(C)o3)ccc2OC)c1 | inactive: -10.1% | 
15 | Cc1ccc(Cn2c(CNS(=O)(=O)c3cccc([N+](=O)[O-])c3)nc3cccnc32)cc1 | inactive: -0.906% | 
16 | COC(=O)c1cc2sc(Cl)cc2n1Cc1c(C)cc(C)cc1C | inactive: -9.56% | 
17 | CCn1c2ccccc2c2cc(NC(=O)COc3ccc(C)cc3C)ccc21 | inactive: -0.509% | 
18 | COc1ccc(-c2c(C)c3ccc(O)c(CN4CCOCC4)c3oc2=O)cc1 | inactive: -8.79% | 
19 | COCCNC(=O)Nc1cc(C(=O)NCc2ccc(C(C)C)cc2)ccc1N1CCCC1 | inactive: -7.45% | 
20 | COc1cc(C2NC(=O)c3c(sc4c3CCN(C)C4)N2)cc(Br)c1OC(=O)c1ccc(C)cc1 (stereo not drawn) |  | active: 22.4 µM
21 | Cc1ccccc1-n1nc(CO)c(C(=O)NCc2cccnc2)n1 | inactive: -15.3% | 

Row | Structure (SMILES) | activation | Potency
22 | CCc1cccc(C)c1NC(=O)Cn1cnc2c1c(=O)n(C)c(=O)n2C | inactive: -27.6% | 
23 | CCOC(=O)C1CCN(C(c2ccc(SC)cc2)c2c(O)cc(C)n(Cc3ccco3)c2=O)CC1 (stereo not drawn) | inactive: -9.15% | 
24 | Cc1nc2nncn2c(Nc2ccccc2)c1C | inactive: -15.8% | 
25 | COc1ccc(OC)c(NC(=O)c2c(N3CCCC3=O)c3cc(OC)ccc3n2C)c1 | inactive: -7.21% | 
26 | CCOC(=O)c1c(-c2ccccc2)csc1NC(=O)c1cc(=O)c2ccc(C)cc2o1 | inactive: -26.5% | 
27 | CCc1nn2c(=O)cc(COC(=O)c3cccc(NC(=O)c4cccs4)c3)nc2s1 | inactive: -5.25% | 
28 | COc1cccc(C(=O)NCCc2csc(-c3ccc(Cl)cc3)n2)c1 | inactive: -3.24% | 
29 | Cc1cccc(NC(=O)CCS(=O)(=O)c2cccc3nsnc23)c1C | inactive: 9.7% | 
30 | COc1ccccc1N1CCN(c2ncnc3onc(-c4ccc(F)cc4)c23)CC1 | inactive: -22.3% | 
31 | Cc1ccc(NC(=O)C2CCN(S(=O)(=O)c3ccc4[nH]c5c(c4c3)CCCCC5)CC2)cc1 | inactive: -18.8% | 
32 | COC(=O)c1c(NC(=O)CCCOc2ccc(C(C)(C)C)cc2)sc2c1C(C(=O)OC)CC2 (stereo not drawn) | inactive: -12.3% | 
33 | CCc1ccc(CNC(=O)C(C)n2ccc3cc(S(=O)(=O)N4CCCCCC4)ccc32)cc1 (stereo not drawn) | inactive: -14.1% | 
34 | COc1ccc(N2CCN(C(=O)CCn3c(=O)[nH]c4cc(OC)c(OC)cc4c3=O)CC2)cc1 | inactive: -17.5% | 
35 | Cc1ccc(C)c(NC(=O)C2CCCN(c3nc4ccccc4s3)C2)c1 (stereo not drawn) | inactive: -11.9% | 
36 | CC1CN(C(=O)N2CCC(C(=O)NCc3cccs3)CC2)c2cc(Cl)ccc2O1 (stereo not drawn) | inactive: -6.25% | 
37 | CCOC(=O)CSC1=Nc2ccccc2C2=NC(CCC(=O)NCc3ccc(F)cc3)C(=O)N12 (stereo not drawn) | inactive: -13.3% | 
38 | O=C(NCc1cccc(F)c1)C1CCCN(C(=O)N2CCOc3ccccc32)C1 (stereo not drawn) | inactive: -14% | 
39 | Clc1cccc(CSc2ccc(-c3cccs3)nn2)c1 | inactive: 2.19% | 
40 | COC(=O)CN1C(C(=O)c2ccccc2)=C(OC(=O)c2ccc(C)cc2)c2ccccc2S1(=O)=O | inactive: -3.44% | 
41 | O=C(c1cccn1-c1nnc(N2CCCCC2)s1)N1CCN(c2ccccc2)CC1 | inactive: -13.1% | 
42 | CC(C)C[C@H](NC(=O)[C@H](Cc1ccccc1)NC(=O)c1cnccn1)B(O)O | inactive: -13.6% | 

Row | Structure (SMILES) | activation | Potency
43 | CCOC(=O)c1c(C)oc2nc(C)nc(N3CCN(c4ccc(OC)cc4)CC3)c12 | inactive: -16.4% | 
44 | CCNC(=O)C1CCN(Cc2cc3ccccc3n2Cc2ccc(C)cc2)CC1 | inactive: -13.8% | 
45 | COc1ccccc1Cn1c(SCC(=O)C(C)(C)C)nc2ccccc2c1=O | inactive: -7.96% | 
46 | CCOc1ccccc1CNC(=O)CCCN1C(=O)c2cccnc2Oc2ccc(Cl)cc21 | inactive: 1.31% | 
47 | CCOC(=O)C1CCN(C(=O)Cn2ncc3c4ccccc4n(C)c3c2=O)CC1 | inactive: -11.6% | 
48 | COc1ccc(CNC(=O)CCCN2C(=O)c3cccnc3Oc3ccc(Cl)cc32)cc1 | inactive: -14.4% | 
49 | Cc1oc(-c2cccc(Cl)c2)nc1CSCC(=O)NCc1ccccc1Cl | inactive: -17.7% | 
50 | CCn1c(=O)c2sccc2n2c(CCC(=O)NCc3ccc(Cl)cc3)nnc12 | inactive: -7.77% | 
51 | CCS(=O)(=O)c1ccccc1C(=O)N1CCN(c2nc3ccccc3s2)CC1 | inactive: -19% | 
52 | N#Cc1ccc(CSc2nnc(-c3ccc(Br)cc3)o2)cc1 | inactive: -16.5% | 
53 | COCCNC(=O)c1ccc(-c2nc(CN3CCc4ccccc43)c(C)o2)cc1 | inactive: -9.25% | 
54 | CCOC(=O)c1ccc(NC(=O)CN2CCCCC2)cc1 | inactive: -8.12% | 
55 | Cc1ccc(OCC(=O)Nc2sc3c(c2C(N)=O)CCCC3)c(C(C)(C)C)c1 | inactive: 0.69% | 
56 | CC(C)OCCCNC(=O)CN1C(=O)COc2ccc(S(=O)(=O)N3CCOCC3)cc21 | inactive: 6.85% | 
57 | COc1ccccc1NC(=O)c1ncoc1-c1ccco1 | inactive: -9.68% | 
58 | Cc1csc2nc(COC(=O)c3ccc(NC(=O)C(C)C)cc3)cc(=O)n12 | inactive: -22.3% | 
59 | CCCCNC(=O)Cn1cnc2sc(C)c(S(=O)(=O)N3CCN(c4ccccc4OC)CC3)c2c1=O | inactive: -23.1% | 
60 | Cc1cccc(NC(=O)c2cc3c(=O)n4ccccc4nc3n2C)c1C | inactive: -7.38% | 
61 | Cc1ccc(-n2c(SCC(=O)Nc3ccc4c(c3)OCCO4)nc3c([nH]c4ccccc43)c2=O)cc1 | inactive: -28.7% | 
62 | Cc1cccc(NS(=O)(=O)c2nnc(NC(=O)c3cccc(C)c3)s2)c1 | inactive: -20.8% | 
63 | COC(=O)c1ccccc1NC(=O)CSc1nc2nc(C)cc(C)n2n1 | inactive: -0.292% | 
